The source of these data is publication PMC10435766.

By UniProt entry, the sequences of proteins in these tests, tags left out. Residues count along the entry.
UniProt Q7Z434: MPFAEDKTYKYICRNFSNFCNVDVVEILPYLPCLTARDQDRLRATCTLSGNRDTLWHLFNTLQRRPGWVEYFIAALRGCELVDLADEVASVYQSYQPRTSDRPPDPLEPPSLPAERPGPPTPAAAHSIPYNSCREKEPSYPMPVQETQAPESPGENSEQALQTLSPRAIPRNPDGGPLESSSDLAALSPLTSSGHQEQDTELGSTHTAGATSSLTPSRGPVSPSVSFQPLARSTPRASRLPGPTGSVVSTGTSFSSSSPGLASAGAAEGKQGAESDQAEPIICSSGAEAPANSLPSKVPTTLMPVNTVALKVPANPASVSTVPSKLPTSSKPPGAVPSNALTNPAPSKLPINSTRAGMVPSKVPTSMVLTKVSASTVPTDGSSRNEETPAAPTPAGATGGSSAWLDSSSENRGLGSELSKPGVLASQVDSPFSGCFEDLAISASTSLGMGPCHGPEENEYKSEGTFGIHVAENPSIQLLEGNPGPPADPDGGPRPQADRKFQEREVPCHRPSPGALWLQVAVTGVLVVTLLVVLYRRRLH
UniProt P01042, residues 19-644: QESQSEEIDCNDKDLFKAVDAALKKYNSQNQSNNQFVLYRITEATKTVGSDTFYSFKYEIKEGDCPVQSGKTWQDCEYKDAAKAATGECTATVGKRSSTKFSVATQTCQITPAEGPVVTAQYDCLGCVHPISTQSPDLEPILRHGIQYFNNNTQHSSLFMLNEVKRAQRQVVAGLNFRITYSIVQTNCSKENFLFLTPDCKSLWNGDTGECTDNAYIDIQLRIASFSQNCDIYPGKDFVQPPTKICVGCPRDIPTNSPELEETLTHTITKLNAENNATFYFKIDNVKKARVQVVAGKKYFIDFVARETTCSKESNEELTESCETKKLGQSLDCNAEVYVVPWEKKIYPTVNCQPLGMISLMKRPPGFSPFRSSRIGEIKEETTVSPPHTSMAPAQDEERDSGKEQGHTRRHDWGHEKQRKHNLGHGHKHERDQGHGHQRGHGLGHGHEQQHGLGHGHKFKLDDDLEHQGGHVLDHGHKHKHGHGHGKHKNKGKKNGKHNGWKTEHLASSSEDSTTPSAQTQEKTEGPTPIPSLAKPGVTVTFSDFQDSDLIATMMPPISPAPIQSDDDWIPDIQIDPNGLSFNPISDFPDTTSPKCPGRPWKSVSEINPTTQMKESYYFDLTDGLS

No constants are given. Whether binding was seen depends on the method and setting. Binding seen in cells or lysates may run through a third protein. Some results given as binding are weak or reduced against the parent protein; the word gives no strength.

Experiment [1] addresses HSP90A-His (PCAGGS-HSP90A-His) (UniProt P07900). Description: co-IP; HepG2.2.15 cells co-transfected with HSP90A-His along with KNG1-Flag or MAVS-Flag; immunoprecipitated and immunoblotted with indicated antibodies. In general terms: Immunoblotting shows a protein as a band on a membrane.
In experiment [2] the target is MAVS (endogenous) (human (endogenous in HepG2, HepG2.2.15, Huh7)) (UniProt Q7Z434). Briefly: co-IP; vector or KNG1-Flag co-transfected into Huh7 cells with pHBV; lysates incubated with anti-MAVS antibody and Protein A + G agarose.
In experiment [3] the target is MAVS-His (UniProt Q7Z434). Briefly: co-IP; vector or KNG1-Flag co-transfected into HepG2 cells with pHBV and MAVS-His or HSP90A-His (also HepG2.2.15; Huh7 with HSP90A-His); lysates incubated with anti-His antibody and Protein A + G agarose.
Experiment [4] concerns the target MAVS (endogenous) (human (endogenous in HepG2, HepG2.2.15, Huh7)) (UniProt Q7Z434). Briefly: condition: only cells treated with 0.5 μM 17-AAG for 24 h; co-IP; immunoprecipitation of endogenous MAVS from HepG2 cells (also HepG2.2.15 and Huh7) treated with 0.5 μM 17-AAG for 24 h; blot for HSP90A.
Experiment [5] has the same target. Briefly: co-IP; immunoprecipitation of endogenous MAVS from untreated HepG2 cells (also HepG2.2.15 and Huh7); blot for HSP90A.
Experiment [6] concerns the target HSP90A-His (PCAGGS-HSP90A-His) (UniProt P07900). Briefly: co-IP; vector or KNG1-Flag co-transfected into HepG2 cells with pHBV and MAVS-His or HSP90A-His (also HepG2.2.15; Huh7 with HSP90A-His); lysates incubated with anti-His antibody and Protein A + G agarose.
Experiment [7] deals with KNG1-Flag (pcDNA3.1-KNG1-3 × Flag) (human) (UniProt P01042). Briefly: co-IP; HepG2.2.15 cells transfected with KNG1-Flag for 48 h; lysates incubated with anti-Flag agarose; immunoblot.

On to “MAVS-Flag (pcDNA3.1-MAVS-Flag) (from UniProt Q7Z434 1-540)”, for which the binding result in experiment [1] was “binds”.
On to “HSP90A (endogenous) (from UniProt P07900 1-732)”, for which the binding result in experiment [2] is given as “binds”; in experiment [3], “binds”; in experiment [4] it was “no binding”; in experiment [5] it was “binds”.
As for “MAVS (endogenous) (from UniProt Q7Z434 1-540)”, the binding result in experiment [6] and in experiment [7] was “binds” each time.
“KNG1-Flag (pcDNA3.1-KNG1-3 × Flag) (from UniProt P01042 19-644)”: the binding entry in experiment [1] is recorded as “binds”.
